Measurements: article PMC2844433
No constants are given. Whether binding was seen depends on the method and setting. Binding seen in cells or lysates may run through a third protein. Some binding calls cover weakened binding; strength is not graded here. Tags and fused reporters may be left off the sequences shown.

Chains of the proteins cited; added tags and fusions are not shown.
UniProt P06748: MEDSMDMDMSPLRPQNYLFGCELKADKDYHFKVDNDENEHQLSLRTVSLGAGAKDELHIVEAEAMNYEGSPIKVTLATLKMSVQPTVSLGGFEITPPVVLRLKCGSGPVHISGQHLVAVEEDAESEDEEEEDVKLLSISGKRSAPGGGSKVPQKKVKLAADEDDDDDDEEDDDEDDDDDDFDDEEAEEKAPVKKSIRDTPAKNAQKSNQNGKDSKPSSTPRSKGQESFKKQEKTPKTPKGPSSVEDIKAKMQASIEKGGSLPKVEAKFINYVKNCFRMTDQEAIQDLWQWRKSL

Target: Flag-NPM/B23 (UniProt P06748)
Experiment: co-IP; 293T cells transfected with Flag-NPM/B23 and Myc-Plk2 KD or with Myc-Plk2 KD alone; anti-Flag or anti-Myc immunoprecipitation; lysis buffer 40 mM Tris-HCl pH 7.5, 0.5% NP-40, 150 mM NaCl; Western blot

B1: Myc-Plk2 KD (enzyme, UniProt Q9NYY3 1-685)
chain: MELLRTITYQPAASTKMCEQALGKGCGADSKKKRPPQPPEESQPPQSQAQVPPAAPHHHHHHSHSGPEISRIIVDPTTGKRYCRGKVLGKGGFAKCYEMTDLTNNKVYAAKIIPHSRVAKPHQREKIDKEIELHRILHHKHVVQFYHYFEDKENIYILLEYCSRRSMAHILKARKVLTEPEVRYYLRQIVSGLKYLHEQEILHRDLKLGAFFINEAMELKVGDFGLAARLEPLEHRRRTICGTPNYLSPEVLNKQGHGCESDIWALGCVMYTMLLGRPPFETTNLKETYRCIREARYTMPSSLLAPAKHLIASMLSKNPEDRPSLDDIIRHDFFLQGFTPDRLSSSCCHTVPDFHLSSPAKNFFKKAAAALFGGKKDKARYIDTHNRVSKEDEDIYKLRHDLKKTSITQQPSKHRTDEELQPPTTTVARSGTPAVENKQQIGDAIRMIVRGTLGSCSSSSECLEDSTMGSVADTVARVLRGCLENMPEADCIPKEQLSTSFQWVTKWVDYSNKYGFGYQLSDHTVGVLFNNGAHMSLLPDKKTVHYYAELGQCSVFPATDAPEQFISQVTVLKYFSHYMEENLMDGGDLPSVTDIRRPRLYLLQWLKSDKALMMLFNDGTFQVNFYHDHTKIIICSQNEEYLLTYINEDRISTTFRLTTLLMSGCSSELKNRMEYALNMLLQRCN
B1 was tested. Which binding did it give?
The binding was “binds”.
